In all, about 4,800 compounds went through this assay and about 420 (8.8%) showed an effect of 50% or more. This is one part of the list.

Here are results for 28 compounds from ChEMBL document CHEMBL4888484, “Replenishing the malaria drug discovery pipeline: Screening and hit evaluation of the MMV Hit Generation Library 1 (HGL1) against asexual blood stage Plasmodium falciparum ,using a nano luciferase reporter read-out” (2022).

The test deals with Plasmodium falciparum. The test is described as follows: Confirmatory screen in NF54 nanoGlo assay, in single point, at 2uM, 72h. It is filed as functional, Erythrocyte. Particulars: timepoint 72 hour.
Consider `COc1ccccc1[C@@H]1CC(c2cccn2C)=NN1C(=O)CN(CCN1CCOCC1)C(C)=O`, for which the “% Inhibition” value is on record as -1%.
On to `O=C(Nc1ccc(N2CCC(Cc3ccccc3)CC2)cc1C(=O)O)c1ccccc1F`, for which the “% Inhibition” value was -21%.
For `Cc1nnc(NC(c2cnc3ccccc3c2)[C@H]2C[C@@H](O)C2)s1` (stereo partly drawn) the value was 35%; for `COc1ccc(CCc2nc(NC(=O)c3nc(C)sc3C)n[nH]2)cc1OC`, 65%.
`COc1ccc(C(=O)N(CCO)CCN2CCOCC2)c(OC2CCCC2)c1`: the “% Inhibition” value is 3%.
Regarding `CCOC(=O)c1sc(NC)nc1C(F)(F)F`, the “% Inhibition” value is -19%.
In the case of `Cc1nnc2ccc(S(=O)(=O)N(Cc3ccc(F)cc3)c3cccc(Cl)c3)cn12` it was 3%; in that of `Cc1ccc(Cl)cc1N1CCN(C(=O)c2ccc3noc(-c4ccc(F)cc4)c3c2)CC1`, -19%.
In the case of `COc1cccc(NC(=O)N2CC(O)CC2C2CCCCC2)c1` (stereo not drawn) it was -3%.
For `CN(C)c1ccc(CNC2CCCCCC2)cc1` the value was -15%; for `Cc1cc(C(=O)NC(C2CC2)C2CC2)c(C)o1`, -2%; for `Cc1cccc(CC(=O)N[C@@H](C)CCC(=O)O)c1`, 4%.
Regarding `CCOC(=O)C1CCN(c2cc3c(cc2NC(=O)c2cccc(C)c2)n(C)c(=O)n3C)CC1`, the “% Inhibition” value was found to be 2%.
For `CN(C(=O)Cn1c(=O)n(-c2cc(F)cc(F)c2)c(=O)c2sccc21)c1ccccc1` the value was -1%.
On to `Cc1nc(N2CCC(c3nc(-c4ccccc4)no3)CC2)c2c(C)noc2n1`, for which the “% Inhibition” value is on record as 54%.
For `NC(=O)[C@H]1CCCN(c2ccnc(C(=O)NCc3ccccc3)c2)C1` the value was 3%.
In the case of `Oc1cc(CC[C@H]2CCCCN2)cc(-c2cnc3ccccc3n2)c1` it was 73%; in that of `N#Cc1cccc(-c2c[nH]c(CNc3nc4cc(C(F)(F)F)ccc4s3)n2)c1`, 0%.
In the case of `O=C(Cn1c(=O)n(-c2cc(F)cc(F)c2)c(=O)c2sccc21)NCc1ccc2c(c1)OCO2` it was -9%.
For `COc1ccc(S(=O)(=O)N2C[C@@H]3CCCN3c3cc(C(F)(F)F)ccc32)cc1`, the “% Inhibition” value was determined as 3%.
In the case of `O=S(=O)(Cc1ccccc1)N1CCN(C2CCCCCC2)CC1`, the “% Inhibition” value was -5%.
For `CCC1C(=O)CC(c2ccco2)NC1c1ccco1` (stereo not drawn), the “% Inhibition” value is listed as -3%.
In the case of `Cc1ccc(NC(=O)Nc2cc(C)ccc2N2CCCN(Cc3ccc(F)cc3)C2=O)cc1` it was 34%; in that of `Cc1ccc(S(=O)(=O)CC(=O)NC(C)(C)C)cc1`, 0%; in that of `C[C@H]1CCN(c2ncc(Cl)cc2Cl)CCS1(=O)=O`, -9%.
Regarding `O=C1C2C(Cc3ccccc3)NC3(C(=O)Nc4ccccc43)C2C(=O)N1c1cccc(C(F)(F)F)c1` (stereo not drawn), the “% Inhibition” value is listed as 4%.
On to `Cc1ccccc1CNC1C(=O)NCCC1C` (stereo not drawn), for which the “% Inhibition” value is -6%.
As to `COc1ccc(CCc2nnc(NC(=O)Cc3c(C)noc3C)[nH]2)cc1OC`, the “% Inhibition” value stood at 15%.
